Assay results reported in PubChem BioAssay AID485281 (National Center for Advancing Translational Sciences (NCATS), 2010).
“And” between values parts separate entries of the source, which are not always exact repeats. Identical values can stand only once. Among all 350,000 compounds or so, about 260 (0.074%) were called active. Inconclusive means that the source gave no clear call. Such entries were picked first, then a sample of the others. Calls come from the whole dose curve; as a rule, active = well fitted inhibition curve with a large enough effect; inconclusive = small, poorly fitted or top-dose-only effect; inactive = no such curve, though single readings can be large or run the other way. Where the call is inconclusive, the potency comes from a doubtful curve fit.

Target: Ferritin light chain (Equus caballus) (UniProt P02791)
Sequence of UniProt P02791 (P02791 whole entry, looked up): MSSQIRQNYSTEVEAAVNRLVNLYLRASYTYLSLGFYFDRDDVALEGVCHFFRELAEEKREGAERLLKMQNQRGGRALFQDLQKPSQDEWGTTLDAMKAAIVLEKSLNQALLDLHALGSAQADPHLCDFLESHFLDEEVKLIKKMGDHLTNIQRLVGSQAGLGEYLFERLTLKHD
Assay: qHTS Assay for Identification of Novel General Anesthetics; note: nearly all actives have a fitted effect of over 20% in size
Conditions: apoferritin/1-aminoanthracene competitive binding, fluorescence; activity change, negative = displacement: at 77.5 µM (top of the series)
In short: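 In PBS, apoferritin at 10 uM is loaded with 1-AMA from a 50% saturated solution. After 10 min of compound exposure at ambient temperature, reduced 535 nm fluorescence indicates probe displacement.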
% is set by controls: 0 for no effect and ±100 for the full control effect; potency is the fitted concentration of half-maximal effect; tags give direction and shape of the fitted curve.

Potency, inconclusive:
c1ccc(CSc2nnc(Cc3ccccn3)o2)cc1 25.1 µM [inhibitor, partial curve], C=CCn1c(C)cc(C(=O)Cn2ncc(Cl)c(Cl)c2=O)c1C 50.1 µM [inhibitor, single point], Cc1ccc(NC(=O)Cn2nc(C(=O)Nc3ccc(C)cc3)ccc2=O)cc1 31.6 µM [inhibitor, partial curve] and 11.2 µM [inhibitor, partial curve], CSc1nsc(SC)c1NC(=O)OC1CCCCC1 11.2 µM [inhibitor, full curve, poor fit], Cc1c(C(=O)OCC(=O)Nc2ccc(C(=O)N(C)C)cc2)oc2ccccc12 35.5 µM [inhibitor, partial curve], CC(C)(C)OC(=O)N1CCC(c2c(C(=O)NCc3cccc(Cl)c3)cnn2-c2ccc(F)cc2)CC1 3.55 µM [inhibitor, full curve], COc1ccc(NC(=O)O/N=C2/CCCc3ccc(OC)cc32)cc1 12.6 µM [inhibitor, partial curve], COc1ccc(C(=O)CSC2=C(C#N)C3(CCCCC3)C(C#N)=C(N)N2)cc1 35.5 µM [inhibitor, partial curve], CC(C)N(C(=O)Cn1cc(SCC(=O)Nc2ccccc2F)c2ccccc21)C(C)C 3.55 µM [inhibitor, partial curve], COc1ccc(Cl)cc1C(=O)Nc1ccccc1N1CCN(C(=O)C(C)C)CC1 15.8 µM [inhibitor, partial curve], Nc1nnc(SCc2ccc3c(c2)OCO3)s1 31.6 µM [inhibitor, partial curve], CCOC(=O)c1c(C)[nH]c(C(=O)CN2C(=O)NC(C)(c3ccc(C)cc3)C2=O)c1C (stereo unspecified) 14.1 µM [inhibitor, partial curve], COc1ccc(N2CCN(C(=O)c3ccccc3Br)CC2)c([N+](=O)[O-])c1 25.1 µM [inhibitor, partial curve, poor fit], O=Cc1c[nH]c2ccc(C(=O)c3ccccc3)cc12 39.8 µM [inhibitor, partial curve], Cc1ccc(OCCN2C(=O)NC3(CCc4ccccc4C3)C2=O)cc1 (stereo unspecified) 56.2 µM [inhibitor, single point], O=C(Oc1ccc(N(C(=O)c2ccncc2)S(=O)(=O)c2ccc(Cl)cc2)cc1)c1ccncc1 31.6 µM [inhibitor, partial curve], CCCCC(=O)Nc1cccc(NC(=O)c2cccc([N+](=O)[O-])c2)c1 31.6 µM [inhibitor, partial curve], Fc1ccc(Nc2ccc3ccccc3n2)c(F)c1 28.2 µM [inhibitor, partial curve], Cc1ccc(-c2cc(C(=O)Nc3cc([N+](=O)[O-])ccc3C)no2)cc1F 3.98 µM [inhibitor, full curve], CCCOc1ccc(/C=N/NC(=O)c2ccc(Cn3cc([N+](=O)[O-])cn3)o2)cc1 31.6 µM [inhibitor, single point], COc1ccc(S(=O)(=O)NCC(c2cccnc2)N2CCN(c3ccccc3)CC2)cc1C (stereo unspecified) 31.6 µM [inhibitor, partial curve], CCOC(=O)c1ccc(N2C(=O)c3n[nH]c(-c4cccs4)c3C2c2ccc(OCC)cc2)cc1 (stereo unspecified) 2.24 µM [inhibitor, full curve, poor fit], Cc1cc(C(=O)Nc2ccc(Nc3ccccc3)cc2)ccc1[N+](=O)[O-] 10 µM [inhibitor, partial curve], O=C(Nc1ccc(N2CCOCC2)c(Cl)c1)C1CCCCC1 14.1 µM [inhibitor, partial curve], CCCOC(=O)C(C)n1cnc2sc(C)c(C)c2c1=O (stereo unspecified) 56.2 µM [inhibitor, single point], NS(=O)(=O)c1ccc(NC(=O)CCC2CCCCC2)cc1 3.98 µM [inhibitor, full curve, poor fit], CCOC(=O)CN1C(=O)C(Sc2n[nH]c(-c3ccccc3)n2)CCc2ccccc21 (stereo unspecified) 20 µM [inhibitor, partial curve], CN1Cc2cc(C(=O)c3cc(Cl)cc(CSc4ncccn4)c3O)cnc2NC1=O 12.6 µM [inhibitor, partial curve], Cc1cc(OCCCCCn2ccnc2)cc(C)c1Cl 28.2 µM [inhibitor, partial curve], O=C(NCc1ccc(Cl)c(Cl)c1)c1ccc2c(c1)OCO2 31.6 µM [inhibitor, single point], Cc1c(C(=O)NNC(=O)Nc2ccc([N+](=O)[O-])cc2)oc2ccccc12 7.94 µM [inhibitor, partial curve]

Potency, active:
CC1CCCCN1C(=O)Nc1cccc(Cl)c1 (stereo unspecified) 22.4 µM

Activity change, negative = displacement, inactive:
Cn1c(=O)cc(SCC(=O)N2CCCC2)c2ccccc21 -5.19%, O=C(/C(=C/c1ccc(Cl)cc1)c1nc2ccccc2[nH]1)c1ccccc1 -13.8%, O=C(NCc1cccc(CNC(=O)C(=O)NCC2CCCO2)c1)C(=O)NCC1CCCO1 (stereo unspecified) 0.119%, C=CCC1(C)OC=Cc2nc3cc(Cl)c(Cl)cc3nc21 (stereo unspecified) 2.97% [at 15.3 µM], OC1=C(O)c2nc3cc(F)ccc3nc21 5.55%, Cc1c2cnn(CC(=O)NCc3ccc(F)cc3)c(=O)c2c(C)n1Cc1cccc(Cl)c1 40.8%, CCOc1ccc(NC(=O)CC2C(=O)N(c3ccc(F)cc3)C(=O)N2Cc2ccc(OC)c(OC)c2)cc1 (stereo unspecified) -14.4%, CC1CC(C)CN(CCCNC(=O)c2cn(C)c3ccc(S(=O)(=O)N4CCCC4)cc3c2=O)C1 (stereo unspecified) -0.299%, COc1ccc(C2=Nn3c(nnc3-c3cc(OC)ccc3OC)SC2)c(OC)c1 -15%
